From patent publication US10011657B2, “Anti-CS1 antibodies and antibody drug conjugates” (AbbVie Biotherapeutics Inc., priority 2014, dated 2018) come the findings set out here.

The assay has as its target T1, human CS1 (Homo sapiens, UniProt Q9NQ25).
T1 construct: expressed in transfected cells; host or cells: 293s cells
Kind of assay: Flow-cytometry competition assay with AF488-labeled PDL241 (murine antibodies, Example 2). The class given is binding. The following applies: 293s cells transfected with human CS1; 60 μg/mL unlabeled test antibody, 6 μg/mL labeled PDL241; less than 20% inhibition = does not compete. The procedure:
293s cells transfected with human CS1 (300,000 cells per data point) were incubated at various concentrations with an AF488-labeled PDL241 antibody. The concentration at which 80% of maximal binding occurred was identified (6 μg/mL) and used for the subsequent competition assays.
For the competition assays, transfected 293s cells (300,000 cells per data point) were incubated for 30 min (on ice) with a tenfold excess of unlabeled test antibody (60 μg/mL). After the incubation, 6 μg/mL of AF488-labeled PDL241 was added to the cells and incubated on ice for 30 minutes. After this incubation, the cells were washed with PBS+1% FBS, and binding of AF488-labeled PDL241 was determine by flow cytometry.

T1 sequence (Q9NQ25 23-335): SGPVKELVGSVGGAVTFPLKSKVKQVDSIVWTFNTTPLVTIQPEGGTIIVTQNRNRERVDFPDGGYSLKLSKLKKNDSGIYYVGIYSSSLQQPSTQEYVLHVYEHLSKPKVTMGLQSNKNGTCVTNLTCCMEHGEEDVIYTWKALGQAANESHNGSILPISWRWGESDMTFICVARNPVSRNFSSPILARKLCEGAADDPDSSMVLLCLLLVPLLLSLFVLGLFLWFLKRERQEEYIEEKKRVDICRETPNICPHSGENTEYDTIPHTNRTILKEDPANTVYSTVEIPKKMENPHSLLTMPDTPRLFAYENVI

B1: Mu27H1: murine anti-CS1 antibody, VH SEQ ID NO: 32, VL SEQ ID NO: 33 (antibody, V domains shown)
VH: QVQLQQSGPELVKPGTSVNISCKASGYTFTDHYINWVKQRPGQGLEWIGWIFPGTGITYYNENFKGKATLTVDKSSSTAYMLLSSLTSEDSAVYFCARRGYGSFDYWGQGTTLTVSS
VL: DIVMTQSPSSLAMSVGQKVTMSCKSSQSLLNSSNQKNYLAWYLQKPGQSLKLMVYFAYTRESGVPDRFIGSGSGTDFTLTISSVQAEDPADYFCQQHYSSPYTFGGGTKLEIK
Regarding B1, the “Competition with AF488-labeled PDL241 for binding” value was “do not compete with PDL241”.
